In PubChem BioAssay AID360 (National Center for Advancing Translational Sciences (NCATS), 2006):
About 550 (1.1%) of roughly 48,000 compounds were called active. The inconclusive results got no clear call from the source; some entries with a clear call stand among them for comparison. Cut-off read from the data, not from the text of the source: active = potency below about 15 µM; inconclusive = mostly about 16 µM to 33 µM; inactive = weaker than that. Potencies of inconclusive entries are left out as doubtful fits.

The molecules below were run against Lysosomal acid glucosylceramidase (Homo sapiens) (UniProt P04062) (assay: Glucocerebrosidase). Settings: purified enzyme, resorufin glucoside fluorescence (screen aimed at inhibitors), 20 min.
Chain of UniProt P04062 (P04062 whole entry, looked up): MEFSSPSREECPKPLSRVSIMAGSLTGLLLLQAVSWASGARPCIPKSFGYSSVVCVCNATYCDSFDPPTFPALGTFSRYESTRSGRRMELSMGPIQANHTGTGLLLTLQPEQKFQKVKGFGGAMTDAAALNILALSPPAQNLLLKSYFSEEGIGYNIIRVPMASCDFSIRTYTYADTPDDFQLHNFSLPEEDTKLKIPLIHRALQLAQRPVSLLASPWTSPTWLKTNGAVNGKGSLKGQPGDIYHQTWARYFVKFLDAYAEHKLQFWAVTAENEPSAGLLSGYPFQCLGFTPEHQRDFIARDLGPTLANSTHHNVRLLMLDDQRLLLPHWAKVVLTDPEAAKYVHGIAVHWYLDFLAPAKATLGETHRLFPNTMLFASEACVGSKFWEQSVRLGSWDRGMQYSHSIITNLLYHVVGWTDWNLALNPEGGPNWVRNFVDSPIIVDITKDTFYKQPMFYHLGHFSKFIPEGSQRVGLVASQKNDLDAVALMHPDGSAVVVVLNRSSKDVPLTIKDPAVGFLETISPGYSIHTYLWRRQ
How it was run: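 Wild-type enzyme at 0.2 nM final in 50mM citric acid/KH2PO4, 10mM sodium taurocholate, 0.01% tween-20, pH 5.9, with resorufin beta-D-glucopyranoside at 30 uM final. Compounds titrated, 20 min at RT, red fluorescence read; AC50 from titration.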
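Note: the screen sought inhibitors.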
Potency is the fitted concentration of half-maximal effect.

Q: How did the Potency turn out when `Cc1ccc2nc(N3CCN(Cc4ccc(F)cc4)C3=O)c(C)cc2c1` was run?
A: inconclusive [decreasing]

Q: How did the Potency turn out when `CC(=O)c1sc(Nc2ccccn2)nc1C` was run?
A: inactive: > 76.9 µM

Q: With `COCCCN1C(=O)c2[nH]nc(-c3ccccc3O)c2C1c1ccc(Cl)cc1` (stereo not given) as the molecule, how does the Potency read?
A: inconclusive [decreasing]

Q: Which Potency does the source give for `CC(=O)Nc1nc(CC(C)C)cc2c1c(=O)oc1ccccc12` here?
A: inactive: > 76.9 µM

Q: How did the Potency turn out when `O=C(COC(=O)c1n[nH]c2ccccc12)NC(=O)NC1CCCCC1` was run?
A: inconclusive [decreasing]

Q: With `Cc1ccc(NC(=O)c2noc3c2CCCCC3)cc1C` as the molecule, how does the Potency read?
A: inconclusive [increasing]

Q: Which Potency does the source give for `CCCOc1ccc(-c2nc(C#N)c(N3CCN(CC)CC3)o2)cc1` here?
A: inconclusive [decreasing]

Q: How did the Potency turn out when `O=C(Nc1ccc2c(c1)nc1n2CCOC1)c1ccco1` was run?
A: inconclusive [decreasing]

Q: For `Cc1cccc2cc(C#N)c(NCCNS(=O)(=O)c3ccc4c(c3)OCCO4)nc12`, which Potency is on record?
A: inconclusive [decreasing]

Q: How did the Potency turn out when `O=c1[nH]c(C2CCCN(S(=O)(=O)c3ccccc3)C2)nc2c1nnn2Cc1ccccc1` (stereo not given) was run?
A: inconclusive [decreasing]

Q: For `O=C1NCCCc2c1oc1ccc(O)cc21`, which Potency is on record?
A: inactive: > 76.9 µM

Q: `Cn1c(/C(C#N)=C2/CCCCCN2)nc2ccccc21` was tested. Which Potency did it give?
A: inconclusive [increasing]

Q: How did the Potency turn out when `CCC(C)C(=O)N1CCc2cc(-c3csc(N)n3)ccc21` (stereo not given) was run?
A: inconclusive [decreasing]

Q: For `COc1ccc(OC)c(-c2cc(C(=O)Nc3c(C)nn(Cc4ccccc4Cl)c3C)no2)c1`, which Potency is on record?
A: inactive: > 76.9 µM

Q: Which Potency does the source give for `CCc1nnc(NC(=O)c2ccc(S(=O)(=O)N(CC(C)C)CC(C)C)cc2)o1` here?
A: inconclusive [decreasing]

Q: With `CCOC(=O)N1CCC(NC(=O)c2cc3c(-c4ccc(OC)c(OC)c4)nn(C)c3s2)CC1` as the molecule, how does the Potency read?
A: inactive: > 76.9 µM

Q: `COc1ccc(OC)c(Nc2cc(-c3ccccc3)nc(N)n2)c1` was tested. Which Potency did it give?
A: inconclusive [decreasing]

Q: Which Potency does the source give for `CSc1cccc(NC(=O)CN(C2CCCCC2)S(C)(=O)=O)c1` here?
A: inconclusive [decreasing]

Q: Which Potency does the source give for `COCCNc1nc(SCC(=O)N2CCN(c3ccccc3OC)CC2)nc2ccccc12` here?
A: inconclusive [decreasing]

Q: How did the Potency turn out when `O=c1[nH]c(SCc2cccc(Cl)c2)nc2c1CCCC2` was run?
A: inconclusive [decreasing]

Q: `CC(C)(C)c1ccc(C(=O)Nc2cnccn2)cc1` was tested. Which Potency did it give?
A: inactive: > 76.9 µM

Q: Which Potency does the source give for `COc1ccc(CSCCN)cc1Cl` here?
A: inconclusive [decreasing]

Q: For `CCn1nc(C(=O)OCC(=O)c2c[nH]c3ccccc23)c2ccccc2c1=O`, which Potency is on record?
A: inconclusive [decreasing]

Q: How did the Potency turn out when `Cc1cccc(NC(=O)c2sc(NC(=O)c3ccco3)c(C#N)c2C)c1C` was run?
A: inactive: > 76.9 µM

Q: For `COc1nc(-c2ccc(Cl)cc2)ccc1-c1noc(-c2ccncc2)n1`, which Potency is on record?
A: inactive: > 76.9 µM

Q: Which Potency does the source give for `CCc1nnc(NC(=O)CSc2nnc(-c3ccccc3O)n2-c2ccc(C)cc2)s1` here?
A: active: 13.8 µM

Q: With `Cc1cc(NC(=O)c2cc(C(C)C)on2)no1` as the molecule, how does the Potency read?
A: inconclusive [decreasing]

Q: How did the Potency turn out when `Clc1ccc(NC2=NCCC2)cc1Cl` was run?
A: inconclusive [decreasing]

Q: How did the Potency turn out when `Cc1nc(N)sc1-c1csc(Nc2ccccc2)n1` was run?
A: inconclusive [decreasing]

Q: `CCC(Oc1ccccc1)C(=O)Nc1ccc(-c2nnc(-c3ccco3)o2)cc1` (stereo not given) was tested. Which Potency did it give?
A: inconclusive [decreasing]

Q: With `CC1(c2ccccc2)CC(c2ccccc2)=Nc2nonc2N1` (stereo not given) as the molecule, how does the Potency read?
A: inconclusive [decreasing]

Q: How did the Potency turn out when `Cc1ccc2cc(C(c3nnnn3C3CCCC3)N(Cc3ccccc3)Cc3ccco3)c(=O)[nH]c2c1` (stereo not given) was run?
A: inconclusive [decreasing]

Q: `CCCCn1c(=N)n(CC(O)COc2cccc(C)c2)c2ccccc21` (stereo not given) was tested. Which Potency did it give?
A: inconclusive [decreasing]

Q: How did the Potency turn out when `O=C(NCCc1ccccc1)c1ccc(-n2cnnn2)cc1` was run?
A: inconclusive [decreasing]

Q: `CCOC(=O)CSC1=C(C#N)C(c2ccc(Cl)cc2)C(C(=O)OC)C(=O)N1` (stereo not given) was tested. Which Potency did it give?
A: inconclusive [decreasing]

Q: How did the Potency turn out when `O=C(O)c1ccccc1NS(=O)(=O)c1cccc2cccnc12` was run?
A: inactive: > 76.9 µM

Q: For `N#C/C(C(N)=O)=c1/ccc2c(c1)N1C3=C(CCCC3)CC3CCCCC31N=2` (stereo not given), which Potency is on record?
A: inconclusive [decreasing]

Q: For `Cc1ccc(C(=O)NCCNC(=O)CN2CCOCC2)cc1`, which Potency is on record?
A: inactive: > 76.9 µM

Q: With `N#Cc1nc(-c2cccc3ccccc23)oc1NCCN1CCOCC1` as the molecule, how does the Potency read?
A: inconclusive [decreasing]

Q: With `Oc1ccccc1C1=Nc2nc3ccccc3n2C(c2ccccc2)C1` (stereo not given) as the molecule, how does the Potency read?
A: active: 14.9 µM

Q: Which Potency does the source give for `COc1ccc2nc(C)c3cc(C)oc3c2c1` here?
A: inconclusive [decreasing]

Q: `O=C(Nc1ccc(Cl)cc1)N1CCC(c2nc(-c3ccc(F)cc3)no2)CC1` was tested. Which Potency did it give?
A: inconclusive [decreasing]

Q: How did the Potency turn out when `Cc1cccc2cc(CN(Cc3cccs3)C(c3nnnn3C3CCCC3)C(C)C)c(=O)[nH]c12` (stereo not given) was run?
A: inconclusive [decreasing]

Q: `COc1ccccc1C(=O)NCCn1cc(SCC(=O)Nc2nnc(C)s2)c2ccccc21` was tested. Which Potency did it give?
A: active: 6.24 µM

Q: With `CCOC(=O)c1sc(=S)n(-c2ccc3c(c2)OCO3)c1N` as the molecule, how does the Potency read?
A: inconclusive [decreasing]

Q: How did the Potency turn out when `O=C(CCN(CCO)Cc1ccccc1)Nc1ccc(Br)cc1` was run?
A: inconclusive [decreasing]

Q: For `COc1ccccc1NC(=O)N1CCc2[nH]c3ccc(F)cc3c2C1`, which Potency is on record?
A: inconclusive [increasing]

Q: `COc1ccc(-n2c(/C=C(\C)O)nc(=O)c3c(C)cc(C)nc32)cc1` was tested. Which Potency did it give?
A: inconclusive [increasing]

Q: For `O=C(c1cc(-c2ccc(F)cc2)on1)N1CCCC1`, which Potency is on record?
A: inactive: > 76.9 µM

Q: For `CC(C)(C)C(=O)Nc1ccc(-c2cn3ccsc3n2)cc1`, which Potency is on record?
A: inactive

Q: How did the Potency turn out when `COc1ccccc1C(=O)N1CCCN(C(=O)c2ccccc2OC)CC1` was run?
A: inactive: > 76.9 µM

Q: How did the Potency turn out when `O=C(NCc1ccco1)C(c1cccs1)N(C(=O)C1COc2ccccc2O1)c1cccc(O)c1` (stereo not given) was run?
A: inconclusive [decreasing]

Q: How did the Potency turn out when `Cc1oc(C(=O)O)cc1COc1ccc2c(C)cc(=O)oc2c1` was run?
A: inactive: > 76.9 µM

Q: With `O=C1CCCC/C1=C\Nc1ccc(Cl)cn1` as the molecule, how does the Potency read?
A: active: 13.9 µM

Q: For `Cc1ccc2[nH]c(=O)c(CN(Cc3ccccc3Cl)C(=O)N3CCOCC3)cc2c1`, which Potency is on record?
A: inactive: > 76.9 µM

Q: `CS(=O)(=O)c1cccc(C(=O)NCc2ccccc2)c1` was tested. Which Potency did it give?
A: inactive: > 76.9 µM

Q: For `CCOC(=O)c1c(C2COc3ccccc3O2)csc1NC(=O)c1ccco1` (stereo not given), which Potency is on record?
A: inconclusive [increasing]

Q: Which Potency does the source give for `O=C(Nc1ccccc1F)N(CCCN1CCOCC1)Cc1cc2cc3c(cc2[nH]c1=O)OCCO3` here?
A: inactive: > 76.9 µM

Q: `COc1ccc(C2=NOC(C(=O)Nc3ccc(C)cc3)C2)cc1OC` (stereo not given) was tested. Which Potency did it give?
A: inactive: > 76.9 µM

Q: How did the Potency turn out when `COc1ccc(NS(=O)(=O)c2cc(C)ccc2NC(=O)c2cc(C)oc2C)cc1` was run?
A: inconclusive [decreasing]

Q: With `Cc1nc2ncnn2c(N2CCN(C(=O)Cc3cccs3)CC2)c1C` as the molecule, how does the Potency read?
A: inactive: > 76.9 µM

Q: For `c1ccc2c(c1)NC1(CCCCC1)n1c-2nc2ccccc21`, which Potency is on record?
A: inactive: > 76.9 µM

Q: Which Potency does the source give for `COc1ccccc1Nc1nc(N)nc(CN2CCC(Cc3ccccc3)CC2)n1` here?
A: active: 0.928 µM

Q: For `O=C(Nc1cccc2nsnc12)c1ccc(F)cc1`, which Potency is on record?
A: inactive: > 76.9 µM

Q: How did the Potency turn out when `O=C(Nc1ccc2c(c1)OCO2)c1nn(-c2ccccc2)c(=O)c2ccccc12` was run?
A: inactive: > 76.9 µM

Q: For `COc1ccc(N2CCN(CCNC(=O)CCS(=O)(=O)c3cccc4nsnc34)CC2)cc1`, which Potency is on record?
A: inactive: > 76.9 µM

Q: `Cn1c(=O)n(CCN2CCOCC2)c(=O)c2c1nc1n2CCN1c1ccccc1` was tested. Which Potency did it give?
A: inactive: > 76.9 µM

Q: `COc1ccc(N(CC(=O)NC2CCCC2)C(=O)Cn2nnc(-c3ccc(C)cc3)n2)cc1OC` was tested. Which Potency did it give?
A: active: 9.37 µM

Q: Which Potency does the source give for `NC(=O)c1cc(Br)cc2c3c([nH]c12)CCCC3` here?
A: inconclusive [decreasing]

Q: Which Potency does the source give for `CCn1c(=N)n(CC(=O)c2ccco2)c2ccccc21` here?
A: active: 13.4 µM

Q: How did the Potency turn out when `Cc1ccc(N(C(C)C(=O)Nc2ccc(S(=O)(=O)N3CCOCC3)cc2)S(C)(=O)=O)cc1` (stereo not given) was run?
A: inactive: > 76.9 µM

Q: How did the Potency turn out when `CCOc1ccc(NC(=O)CN(C)S(=O)(=O)c2cccs2)cc1` was run?
A: inconclusive [decreasing]

Q: Which Potency does the source give for `Cc1cc(Br)ccc1NC(=O)CNC(=O)CN1C(=O)NC2(CCCCCC2)C1=O` here?
A: inconclusive [decreasing]

Q: Which Potency does the source give for `CCN=C(Nc1cccc(F)c1)SC1CC(=O)N(c2ccc(OC)cc2)C1=O` (stereo not given) here?
A: inconclusive [decreasing]

Q: How did the Potency turn out when `COc1cc2c3c(c1)/C(=C1/SC(NC(C)=O)=NC1=O)C(=O)N3C(C)(C)C=C2C` was run?
A: inconclusive [increasing]

Q: Which Potency does the source give for `O=C(Nc1ccc(NC(=O)C2CC2)nc1)c1ccco1` here?
A: inconclusive [increasing]

Q: Which Potency does the source give for `O=C(Nc1cnccn1)c1cccnc1` here?
A: inactive: > 76.9 µM

Q: For `Cc1cc(C)cc(NC(=O)CCn2ccnc2C)c1`, which Potency is on record?
A: inactive: > 76.9 µM

Q: How did the Potency turn out when `N=C1C(c2ccc(Br)cc2)=C(O)C2CCc3ccccc3N12` (stereo not given) was run?
A: inactive: > 76.9 µM

Q: `N#CC1=C2SCN(c3ccccc3)CN2C(=O)CC1c1cccs1` (stereo not given) was tested. Which Potency did it give?
A: inconclusive [decreasing]
